The whole screen tested about 73,000 compounds, of which about 1,800 (2.5%) were called active. Inconclusive means that the source gave no clear call. Such entries were picked first, then a sample of the others. Calls follow the shape of the dose curve; as a rule, active = well fitted activation curve with a large enough effect; inconclusive = small, poorly fitted or top-dose-only effect; inactive = no such curve, though single readings can be large or run the other way. Potencies of inconclusive entries are left out as doubtful fits.
Assay: qHTS Assay for Agonists of the Thyroid Stimulating Hormone Receptor: Activators of Intracellular cAMP Concentrations in Parental HEK 293; also: nearly all actives have a fitted effect of over 55% in size; as to activation: % of control where 0% means no effect
Details: parental HEK293 CNG cAMP sensor, membrane potential fluorescence; activation: at 57.1 µM (top of the series) unless noted
Excerpt: NIH Chemical Genomics Center [NCGC]
NIH Molecular Libraries Screening Centers Network [MLSCN]
PI Name: Dr. Marvin Gershengorn
This cell based assay utilized a cyclic nucleotide gated ion channel (CNG) as a biosensor for cAMP induction. HEK 293 cells stably expressing the modified CNG were purchased from BD biosciences (http://www.atto.com/products/actone/features_benefits.shtml) . Stimulation of cAMP production causes the CNG to open and subsequent membrane depolarization to occur. A fluorescent membrane potential dye (BD biosciences) was utilized to detect cAMP stimulation in cells.
The cells were maintained in DMEM medium (Invitrogen) containing 10 % FBS (Hyclone), 100 units/ml Penicillin, 100 ug/ml Streptomycin (Invitrogen), and 250 ug/ml Geneticin (Invitrogen) and 1 ug/ml Puromycin (Invitrogen) at 37C in 5% CO2. This assay was used as a counterscreen to "qHTS Assay for Agonists of the Thyroid Stimulating Hormone Receptor", to control for compounds signaling through endogenous receptors and other targets of HEK 293 cells.
NCGC Assay Protocol Summary:
High Throughput Screening. Freshly passaged cells were dispensed into 1536-well assay plates at 4 ul/well in DMEM containing phenol red (Invitrogen), 10% FCS (Hyclone), and 100 units/ml Penicillin, 100 ug/ml Streptomycin (Invitrogen) and incubated at 37 C with 5% CO2 for 20 to 36 hrs before the robotic screening. The screen was initiated by addition of 4 ul/well membrane potential dye containing 100 uM RO 20-1724 (Sigma Aldrich), followed by 60 min incubation at room temperature to allow for dye equilibration across the cell membrane. 23 nl/well compound or control was then added to the assay plates, which were incubated for additional 30 min before reading a Envision fluorescence plate reader (Perkin Elmer) in bottom-read mode for fluorescence intensity (emission at 590 nm).
Keywords: cAMP, CNG Ion Channel, quantitative high throughput screening, qHTS, HTS, probe identification, CNG, cAMP, cyclic nucleotide gated ion channel PubChem
In the case of `Cn1c(=O)[nH]c(=O)c2c1nc(CN1CCN(c3ccc(F)cc3)CC1)n2CCCc1ccccc1`, the Potency was inconclusive [activator, single point].
For `CCCN(CC(=O)c1cc(C)n(C)c1C)S(=O)(=O)c1cccc(C(F)(F)F)c1`, the Potency was inconclusive [activator, single point].
With `COc1cc(NS(=O)(=O)c2ccc(NC(=O)COc3ccccc3Cl)cc2)nc(OC)n1` the Potency was inconclusive [activator, single point].
With `CCOc1ccc(NC2c3ccccc3C(=O)N2Cc2ccco2)cc1` (stereo not drawn) the Potency was “inactive”.
In the case of `O=C(Nc1ccc(F)cc1)c1oc2ccccc2c1NC(=O)C1CCCC1`, the Potency was inconclusive [activator, single point].
With `C(=C\c1ccccc1)/CSc1nnc(-c2cccnc2)n1Cc1ccco1` the Potency was active: 15.8 µM.
In the case of `COc1ccc(C(=O)N2CCC3(CCCN(c4ccccn4)C3)CC2)cc1`, the Potency was inconclusive [activator, full curve, poor fit].
For `O=S(=O)(c1ccc(S(=O)(=O)N2CCCC2)cc1)N1CCCCCC1`, the Potency was “inactive”.
For `Cc1ccc2cc3cc(C(=O)NCCCN4CCCCCC4)oc3nc2c1`, the Potency was inconclusive [activator, single point].
In the case of `C[C@@H](CN1CCC(Cc2ccccc2)CC1)[C@H](O)c1ccc(O)cc1`, the Potency was “inactive”.
In the case of `CC(C)N(Cc1nc(-c2ccccc2)no1)C(=O)COc1ccccc1`, the Potency was “inactive”.
With `COc1ccc2c(c1)CCc1c(C(=O)NC3CCCCC3)noc1-2` the Potency was inconclusive [activator, partial curve].
With `CSc1nc(-c2ccccc2)nc(SC)c1C(C)=O` the Potency was inconclusive [activator, single point].
In the case of `COC(=O)C1=C(C)N(C)C(C)=C(C(=O)OC)C1c1cccc(Br)c1`, the Potency was inconclusive [activator, partial curve].
In the case of `Cc1cc(C)cc(-n2nnc(C(=O)NCc3ccccc3Cl)c2N)c1`, the Potency was inconclusive [activator, single point].
For `CCCCN(CCCC)S(=O)(=O)c1ccc(OC)c2ncccc12`, the Potency was inconclusive [activator, single point].
In the case of `COC(=O)[C@@]1(Cc2ccccc2)[C@H]2c3cc(C(=O)N(C)C)n(Cc4ccc(S(C)(=O)=O)cc4)c3C[C@H]2CN1C(=O)c1ccccc1`, the Potency was active: 15.8 µM.
For `CCOc1ccc(C2c3c(oc4ccccc4c3=O)C(=O)N2c2ccccn2)cc1OC` (stereo not drawn), the Potency was inconclusive [activator, full curve, poor fit].
With `CCCCCCCCC/C=C/CC1CC(=O)OC1=O` (stereo not drawn) the Potency was inconclusive [activator, full curve, poor fit].
For `Cc1sc2nc(CN(Cc3cccs3)C(=O)NC3CCCCC3)[nH]c(=O)c2c1C`, the Potency was inconclusive [activator, single point].
For `O=C(CN1C(=O)C2(OCCCO2)c2ccccc21)NCCc1ccccc1`, the Potency was inconclusive [activator, single point].
For `CCOC(=O)C1CCN(C(=O)CCCOc2ccccc2)CC1`, the Potency was inconclusive [activator, partial curve].
With `COc1cccc(-c2cc(NCc3cccc(C)c3)ncn2)c1` the Potency was inconclusive [activator, partial curve].
With `COc1ccc(OC)c(S(=O)(=O)N2CCc3ccccc32)c1` the Potency was inconclusive [activator, single point].
In the case of `CC(=O)Oc1ccc(C(=O)O)cc1OC(C)=O`, the Potency was inconclusive [activator, single point].
For `C=C(Br)Cn1c(CC(C)C)nc2ccccc21`, the Potency was inconclusive [activator, partial curve].
In the case of `N#Cc1c(NCc2ccccc2)ccnc1NCc1cccnc1`, the Potency was inconclusive [activator, partial curve].
For `Cc1cnc(CNc2ccnc(-c3cccc(NS(C)(=O)=O)c3)n2)cn1`, the Potency was inconclusive [activator, single point].
In the case of `COc1ccc2c(c1)CC(C1(O)C(=O)N(C)c3ccccc31)C2=O` (stereo not drawn), the Potency was “inactive”.
With `O=c1c2c(-c3ccco3)csc2nc(SCc2cn3cccnc3n2)n1-c1ccccc1` the Potency was inconclusive [activator, single point].
With `Cc1ccccc1-c1nc(N2CCOCC2)c2ccccc2n1` the Potency was inconclusive [activator, single point].
With `CSCCC(NS(=O)(=O)c1ccc2c(c1)OCCO2)C(=O)NCCc1ccccn1` (stereo not drawn) the Potency was inconclusive [activator, single point].
For `CC(=O)ON1C(C)(C)CC(OC(=O)c2ccccc2)CC1(C)C`, the Potency was inconclusive [activator, partial curve].
For `NCCC[C@@H](CC(=O)N[C@@H]1CCNC[C@H]1C(=O)N[C@H](CC(=O)N[C@@H](CCC(=O)O)CC(=O)O)Cc1ccccc1)NC(=O)C[C@H](Cc1c[nH]c2ccccc12)NC(=O)[C@@H]1CCCC[C@H]1N`, the Potency was inconclusive [activator, single point].
With `O=C(O)c1ccc(CSc2nnc(COc3ccc(Cl)cc3Cl)o2)cc1` the Potency was inconclusive [activator, full curve, poor fit].
For `COC(=O)N1CC(C)N(C(=O)OC)CC1C` (stereo not drawn), the Potency was inconclusive [activator, single point].
In the case of `OCC1OC(c2ccccc2)C=CC1Oc1cc(Cl)cc(Cl)c1` (stereo not drawn), the activation was inactive: 2.02% [at 11.4 µM].
For `CCc1nnc(NC(=O)CSc2nnc(-c3ccccc3NC(=O)c3ccccc3)o2)s1`, the Potency was “inactive”.
With `Cc1ccc(OCC(=O)Nc2ccc(-c3nnc(-c4ccco4)o3)cc2)cc1` the Potency was “inactive”.
With `COc1cc(C2=NOC(C(=O)NCc3ccc(F)cc3)C2)cc(OC)c1OC` (stereo not drawn) the Potency was “inactive”.
With `Cn1cc(S(=O)(=O)N2CCc3ccccc3C2)c(=O)n(C)c1=O` the Potency was “inactive”.
With `CSc1cccc(NC(=O)CN(c2cc(C)ccc2C)S(C)(=O)=O)c1` the Potency was “inactive”.
With `CSCC[C@H](C=O)NC(=O)[C@H](CC(C)C)NC(=O)[C@H](CC(C)C)NC(C)=O` the Potency was “inactive”.
Potency is read from the fitted curve at half-maximal effect; tags tell the direction and shape of the fitted curve.
